Assay [1] addresses T1, FRQ Δ149–193, V5H6-tagged (Neurospora crassa) (UniProt P19970).
T1 sequence: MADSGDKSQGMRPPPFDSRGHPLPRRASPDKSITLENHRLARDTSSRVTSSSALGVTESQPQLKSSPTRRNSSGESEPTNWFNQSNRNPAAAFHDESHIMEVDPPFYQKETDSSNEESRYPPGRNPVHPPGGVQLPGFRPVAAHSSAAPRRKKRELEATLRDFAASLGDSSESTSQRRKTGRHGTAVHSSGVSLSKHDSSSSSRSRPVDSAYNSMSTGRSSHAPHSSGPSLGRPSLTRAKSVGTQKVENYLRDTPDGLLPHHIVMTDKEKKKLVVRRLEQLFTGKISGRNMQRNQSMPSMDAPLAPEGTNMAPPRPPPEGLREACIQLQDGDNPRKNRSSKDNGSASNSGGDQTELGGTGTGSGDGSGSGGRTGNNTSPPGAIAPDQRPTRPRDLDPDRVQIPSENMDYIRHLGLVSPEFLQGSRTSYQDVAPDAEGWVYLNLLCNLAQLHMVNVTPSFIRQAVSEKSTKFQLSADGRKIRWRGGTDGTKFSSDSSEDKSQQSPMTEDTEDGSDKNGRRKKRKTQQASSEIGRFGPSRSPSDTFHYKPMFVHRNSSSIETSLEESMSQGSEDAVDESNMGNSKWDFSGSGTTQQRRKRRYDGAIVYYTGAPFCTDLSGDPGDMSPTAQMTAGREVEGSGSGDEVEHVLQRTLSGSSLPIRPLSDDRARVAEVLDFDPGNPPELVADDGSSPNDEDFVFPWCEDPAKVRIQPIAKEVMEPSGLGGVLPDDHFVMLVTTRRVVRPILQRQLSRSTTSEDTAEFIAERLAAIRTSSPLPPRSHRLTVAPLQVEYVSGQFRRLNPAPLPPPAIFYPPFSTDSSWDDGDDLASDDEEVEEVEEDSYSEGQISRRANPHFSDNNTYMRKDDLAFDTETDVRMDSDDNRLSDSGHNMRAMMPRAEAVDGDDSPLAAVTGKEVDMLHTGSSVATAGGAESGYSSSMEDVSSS
Description: co-IP; V5H6-tagged FRQ (wild type or mutant) pulled down with V5 agarose from Neurospora lysate (cultures in the light, 25 °C); 50 mM Hepes pH 7.4, 137 mM NaCl, 10% glycerol, 0.4% NP-40; 4 °C, 2 h; Western blot with FRQ, FRH, WC-1 and WC-2 antibodies.

Protein sequences, listed by entry. Tags and fused reporters are not part of them.
UniProt Q01371: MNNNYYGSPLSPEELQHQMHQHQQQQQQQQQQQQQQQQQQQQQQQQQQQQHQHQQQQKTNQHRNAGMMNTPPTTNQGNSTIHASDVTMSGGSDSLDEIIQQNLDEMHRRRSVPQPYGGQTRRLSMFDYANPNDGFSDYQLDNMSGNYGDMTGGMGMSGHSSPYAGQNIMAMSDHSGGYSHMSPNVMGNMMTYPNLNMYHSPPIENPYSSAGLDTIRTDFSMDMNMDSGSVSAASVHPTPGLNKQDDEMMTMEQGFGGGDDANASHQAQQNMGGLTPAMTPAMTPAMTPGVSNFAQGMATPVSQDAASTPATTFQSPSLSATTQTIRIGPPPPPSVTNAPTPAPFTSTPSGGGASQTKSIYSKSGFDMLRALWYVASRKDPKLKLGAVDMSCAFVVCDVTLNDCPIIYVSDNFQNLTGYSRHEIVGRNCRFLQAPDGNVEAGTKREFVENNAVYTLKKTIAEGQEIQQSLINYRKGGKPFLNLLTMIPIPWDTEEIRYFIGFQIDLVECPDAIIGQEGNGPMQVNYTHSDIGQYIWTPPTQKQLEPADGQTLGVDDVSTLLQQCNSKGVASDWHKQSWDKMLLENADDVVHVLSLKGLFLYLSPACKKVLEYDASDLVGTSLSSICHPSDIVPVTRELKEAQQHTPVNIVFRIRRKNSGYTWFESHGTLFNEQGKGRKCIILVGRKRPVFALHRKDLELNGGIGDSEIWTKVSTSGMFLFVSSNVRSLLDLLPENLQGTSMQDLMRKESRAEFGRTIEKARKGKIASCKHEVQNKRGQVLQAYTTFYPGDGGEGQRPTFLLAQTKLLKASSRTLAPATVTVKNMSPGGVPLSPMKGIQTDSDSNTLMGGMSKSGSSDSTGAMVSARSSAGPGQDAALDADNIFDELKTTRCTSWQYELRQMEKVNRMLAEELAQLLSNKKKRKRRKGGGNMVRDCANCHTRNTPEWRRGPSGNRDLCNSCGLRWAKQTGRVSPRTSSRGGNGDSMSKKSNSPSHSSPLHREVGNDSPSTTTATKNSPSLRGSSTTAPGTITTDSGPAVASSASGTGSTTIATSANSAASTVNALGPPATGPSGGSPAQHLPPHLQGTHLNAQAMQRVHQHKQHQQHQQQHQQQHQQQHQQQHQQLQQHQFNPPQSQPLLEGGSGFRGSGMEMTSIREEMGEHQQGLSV

The target in assay [2] is T2, FRQ Δ511–558, V5H6-tagged (Neurospora crassa) (UniProt P19970).
T2 sequence: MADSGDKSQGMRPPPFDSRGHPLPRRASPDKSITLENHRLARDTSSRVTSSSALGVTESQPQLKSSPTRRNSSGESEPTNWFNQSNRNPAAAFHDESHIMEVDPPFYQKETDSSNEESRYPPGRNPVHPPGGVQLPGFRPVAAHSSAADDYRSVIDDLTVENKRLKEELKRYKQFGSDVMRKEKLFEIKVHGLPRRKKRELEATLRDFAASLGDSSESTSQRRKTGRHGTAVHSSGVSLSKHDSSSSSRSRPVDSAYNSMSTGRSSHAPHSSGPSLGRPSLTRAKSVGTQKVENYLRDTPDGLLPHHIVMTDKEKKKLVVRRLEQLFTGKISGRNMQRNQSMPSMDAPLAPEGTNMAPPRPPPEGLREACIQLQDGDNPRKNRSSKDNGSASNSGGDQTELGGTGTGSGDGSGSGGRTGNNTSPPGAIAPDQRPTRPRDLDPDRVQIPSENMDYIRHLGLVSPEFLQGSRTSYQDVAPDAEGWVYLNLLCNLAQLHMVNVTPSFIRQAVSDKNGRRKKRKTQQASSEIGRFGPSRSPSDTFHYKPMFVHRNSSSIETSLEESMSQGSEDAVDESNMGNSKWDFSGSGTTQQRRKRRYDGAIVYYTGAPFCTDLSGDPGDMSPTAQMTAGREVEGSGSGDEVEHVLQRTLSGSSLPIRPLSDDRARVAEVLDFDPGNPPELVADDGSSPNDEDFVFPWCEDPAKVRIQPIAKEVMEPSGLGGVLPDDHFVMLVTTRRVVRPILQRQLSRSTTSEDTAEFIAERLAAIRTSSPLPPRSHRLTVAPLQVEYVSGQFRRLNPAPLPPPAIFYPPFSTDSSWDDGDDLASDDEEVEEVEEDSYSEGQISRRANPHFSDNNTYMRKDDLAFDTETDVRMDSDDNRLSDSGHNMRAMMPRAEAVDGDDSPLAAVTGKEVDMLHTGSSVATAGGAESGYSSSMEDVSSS
The assay is described as above.

Results are given in words; binding and its absence hold for the method and conditions named. Binding seen in cells or lysates may run through a third protein. Where a sequence is shown, tags or fusion partners need not be part of it.

“White Collar-1 (WC-1) (from UniProt Q01371 1-1167)”: the binding entry in assay [1] and in assay [2] was “no binding” throughout.
